The campaign covered roughly 410,000 compounds. About 5,000 (1.2%) were called active. The inconclusive results got no clear call from the source; some entries with a clear call stand among them for comparison. Calls come from the whole dose curve; as a rule, active = well fitted inhibition curve with a large enough effect; inconclusive = small, poorly fitted or top-dose-only effect; inactive = no such curve, though single readings can be large or run the other way. Where the call is inconclusive, the potency comes from a doubtful curve fit.
assay: qHTS for Inhibitors of TGF-b; conditions: HepG2 CAGA-GFP TGF-b/SMAD3 reporter, GFP fluorescence, 18 h, TGF-beta stimulated, 500 pg/mL final; series mostly up to 46.1 µM; activity, negative = inhibition: at the top concentration; note: nearly all actives have a fitted effect of over 65% in size
Method in brief: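 Per well, imaged GFP fluorescence of HEPG2 CAGA-GFP cells gives the signal; cells get compound, then TGF-beta (500 pg/mL final), 18 h at 37 degrees C; %Activity versus -TGF-beta and +DMSO controls.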
% is set by controls: 0 for no effect and ±100 for the full control effect; potency is the fitted concentration of half-maximal effect; tags give direction and shape of the fitted curve.

Row | Compound | Potency | activity, negative = inhibition
1 | O=C(NCC1COc2ccccc2O1)c1ccc(NC(=O)C(c2ccccc2)c2ccccc2)cc1 (centres undefined) | inconclusive: 22.4 µM [inhibitor, single point] | 
2 | CCC(C)(C)NC(=O)c1cc(S(=O)(=O)N2CCc3ccccc32)cn1C |  | inactive: -19%
3 | CCOc1cccc(/C=C2\NC(=S)N(c3ccccc3)C2=O)c1O | inconclusive: 35.5 µM [inhibitor, single point] | 
4 | CCN1CCN(c2ccc(S(=O)(=O)N3CCCCC3)cc2NC(=O)c2ccc(F)cc2)CC1 | inconclusive: 6.31 µM [inhibitor, full curve, poor fit] | 
5 | CCC(=O)N1CCc2cc(Br)cc(S(=O)(=O)N3CCCC(C(=O)Nc4ccc(CC)cc4)C3)c21 (centres undefined) | inconclusive: 7.94 µM [inhibitor, partial curve, poor fit] | 
6 | CC(Oc1ccc2ccccc2c1)C(=O)NNC(=O)Nc1ccccc1 (centres undefined) | inconclusive: 35.5 µM [inhibitor, single point] | 
7 | COc1ccccc1Cn1c(CNS(=O)(=O)c2ccc(Cl)s2)nc2cccnc21 | inconclusive: 11.2 µM [inhibitor, partial curve, poor fit] | 
8 | CC(C)(C)c1ccc(-c2nc(-c3ccncc3)no2)cc1 | active: 15.8 µM | 
9 | Cc1cc(C)c(S(=O)(=O)NCC(c2ccco2)N2CCc3ccccc3C2)c(C)c1 (centres undefined) | inconclusive: 25.1 µM [inhibitor, single point] | 
10 | COc1ccccc1CN1C[C@@H]2C[C@@H](c3ccccc3C)N3CCC[C@@]23C1=O |  | inactive: -24.5%
11 | CC(C)C1C(=O)N(Cc2cn(CCC3OCCO3)nn2)CCS(=O)(=O)N1Cc1ccc(-c2ccc(Cl)c(Cl)c2)cc1 (centres undefined) | inconclusive: 35.5 µM [inhibitor, single point] | 
12 | COc1ccc(-n2nnnc2C2CCN(S(=O)(=O)c3cccc(Cl)c3C)CC2)cc1 | inconclusive: 10 µM [inhibitor, partial curve] | 
13 | CCCCn1c(CN2CCN(c3cccc(Cl)c3)CC2)nc2c1c(=O)[nH]c(=O)n2C | inconclusive: 35.5 µM [inhibitor, single point] | 
14 | Cc1nc(Nc2cccc(O)c2)c2oc3ccccc3c2n1 |  | inactive: -3.43%
15 | CN(C(=O)c1cnc(N2CCOCC2)c2ccccc12)c1ccccc1F |  | inactive: 23%
16 | COc1ccccc1N1CCN(C2CCCN(S(=O)(=O)c3cccc(Cl)c3)C2)CC1 (centres undefined) | inconclusive: 11.2 µM [inhibitor, single point] | 
17 | Cc1ccc(C(=O)N[C@H](C(=O)Nc2cccc(S(=O)(=O)N3CCOCC3)c2)C(C)C)cc1 |  | inactive: -2.81%
18 | O=C(O)c1cc(Br)ccc1NN=C1CCCCC1 | inconclusive: 6.31 µM [inhibitor, single point] | 
19 | O=c1c2ccccc2c(-c2ccc(F)cc2)nn1-c1ccc(C(F)(F)F)cc1 | inconclusive: 5.62 µM [inhibitor, single point] | 
20 | C#CCN(C[C@@H]1[C@@H](OC(=O)NCc2ccco2)[C@@H](OC(=O)NCc2ccco2)CN(C(=O)OC(C)C)N1C(=O)OC(C)C)S(=O)(=O)c1ccc(C)cc1 | inconclusive: 35.5 µM [inhibitor, single point] | 

Row | Compound | Potency | activity, negative = inhibition
21 | CCc1nc2c(OCCC3CCCCC3)cccn2c1N(C)C(=O)c1ccc(C)cc1 | inconclusive: 31.6 µM [inhibitor, single point] | 
22 | C[C@H](CO)N1C[C@H](C)[C@@H](CN(C)Cc2ccc3c(c2)OCO3)Oc2c(NC(=O)C3CCCCC3)cccc2C1=O | inconclusive: 10 µM [inhibitor, partial curve, poor fit] | 
23 | COc1ccc(NC(=S)N(CCCN2CCC(C)CC2)Cc2cccs2)cc1Cl | inconclusive: 22.4 µM [inhibitor, single point] | 
24 | CC(C)CC(COCc1ccc(Cl)cc1)N1CCN(C(=O)c2ccc(C(F)(F)F)cc2)CCC1=O (centres undefined) | inconclusive: 35.5 µM [inhibitor, single point] | 
25 | Cc1cc(N2CCN(C)CC2)ccc1NC(=O)c1cccc(S(=O)(=O)N2CCc3ccccc3C2)c1 | inconclusive: 14.1 µM [inhibitor, partial curve, poor fit] | 
26 | COCCOC(=O)C1=C(C)NC(C)=C(C(=O)OC(C)C)C1c1cccc([N+](=O)[O-])c1 (centres undefined) |  | inactive: -18.6%
27 | COc1ccc(-c2cc(C(F)(F)F)n3nc(-c4ccc(Cl)cc4)cc3n2)cc1OC |  | inactive: -0.487%
28 | COCCNC(=O)CSc1nc2cc3c(cc2c(=O)n1CCCCCC(=O)NCCc1ccc(OC)c(OC)c1)OCO3 |  | inactive: -1.29%
29 | CCCCn1nc(C(=O)N[C@@H](CCSC)c2nc3ccccc3[nH]2)c2ccccc2c1=O | inconclusive: 2.24 µM [inhibitor, partial curve, poor fit] | 
30 | CC(=O)c1cccc(-c2cnc3c(NC=O)cc(-c4ccccc4)cn23)c1 | inconclusive: 7.94 µM [inhibitor, partial curve, poor fit] | 
31 | Cn1cncc1C#Cc1c(C=O)n(C)c2ccccc12 | inconclusive: 35.5 µM [inhibitor, single point] | 
32 | NC(=O)CN1CCN(S(=O)(=O)c2ccc(Br)cc2)CC1 |  | inactive: -1.14%
33 | Cc1ccc(-c2c[n+](Cc3ccc(Cl)c(Cl)c3)c3n2CCC3)cc1 | inconclusive: 3.55 µM [inhibitor, full curve, poor fit] | 
34 | COc1cc(Nc2ccc(S(=O)(=O)N3CCN(C)CC3)cc2[N+](=O)[O-])cc(OC)c1 | inconclusive: 11.2 µM [inhibitor, partial curve, poor fit] | 
35 | CC(C)(C)NC(=O)C12CC3CC(CC(Cl)(C3)C1)C2 |  | inactive: -6.07%
36 | Cc1cccc(-c2noc(CN(C(C)C)S(=O)(=O)c3ccc(Br)cc3)n2)c1 | inconclusive: 35.5 µM [inhibitor, single point] | 
37 | Cc1cccc(NC(=O)Cn2nc(C)c3nn(-c4ccc(Cl)cc4)c(C)c3c2=O)c1C |  | inactive: -23.9%
38 | O=C(/C=C/c1cccc([N+](=O)[O-])c1)NCc1ccco1 | inconclusive: 35.5 µM [inhibitor, single point] | 
39 | O=C(N/N=C/c1c[nH]c2ccccc12)c1cc(-c2ccc3ccccc3c2)n[nH]1 | active: 15.8 µM | 

From PubChem BioAssay AID588855 (National Center for Advancing Translational Sciences (NCATS), 2011)
